The other results are listed elsewhere or left out. The full chains were built here from the parent and the listed change. Values near 0.05 are background.
B1: TEV protease; numbered along this chain (parent)
chain: MGESLFKGPRDYNPISSSICHLTNESDGHTTSLYGIGFGPFIITNKHLFRRNNGTLVVQSLHGVFKVKDTTTLQQHLVDGRDMIIIRMPKDFPPFPQKLKFREPQREERICLVTTNFQTKSMSSMVSDTSCTFPSGDGIFWKHWIQTKDGQCGSPLVSTRDGFIVGIHSASNFTNTNNYFTSVPKNFMELLTNQEAQQWVSGWRLNADSVLWGGHKVFMVKPEEPFQPVKEATQL

Variants of: B1
Test: raw area under fraction-flipped curve 0-4 h after induction (AUC4h, not background-subtracted), DNA-recorder readout of cleavage of the substrate (dimensionless); higher = more cleavage of the substrate by the protease variant
Settings: temperature: 34 °C; time window: 0-4 h after rhamnose induction
Procedure: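 In vivo DNA recorder in E. coli TOP10(DE3) ΔrhaA at 34 °C. Each TEVp single-site mutant (parent TEVp 0) is paired with a single-site variant of the 7-mer TEVs (canonical ENLYFQ|S). The substrate sits between flexible linkers in a Bxb1-sfGFP-TEVs-SsrA fusion, so cleavage stabilises Bxb1 and speeds flipping of a recombination array, read by NGS. The value is the raw area under the fraction-flipped curve over 0-4 h after rhamnose induction (AUC4h), with ≥20 reads per time point. It is not background-subtracted; inactive controls average about 0.047.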
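Further: Bxb1 expression induced with 0.2% (w/v) L-rhamnose at OD600 near 0.5, cultures sampled hourly, flipped fraction per protease–substrate barcode pair counted by paired-end Illumina sequencing.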

Row | Variant | area with substrate DNLYFQS | area with substrate FNLYFQS | area with substrate GNLYFQS | area with substrate INLYFQS | area with substrate KNLYFQS | area with substrate LNLYFQS | area with substrate MNLYFQS | area with substrate NNLYFQS | area with substrate PNLYFQS | area with substrate QNLYFQS | area with substrate TNLYFQS | area with substrate WNLYFQS | area with substrate YNLYFQS | area with substrate HNLYFQS | area with substrate SNLYFQS | area with substrate VNLYFQS | area with substrate RNLYFQS
1 | MGESLFKGPRDYNPISSSICHLTNESDGHTTSLYGIGFGPFIITNKHLFRRNNGTLVVQSLHGVFKVKDTTTLQQHLVDGRDMIIIRMPKDFPPFPQKLKFREPQREERICLVTTNFQTKSMSSMVSDTSCTFPSGDGIFWKHWIQTKDGQCGSPLVSTRDGFIVGIHSASNFTNTNNYFTSVPKNFMELLTNQEAQQWVSGWRLNADSVLWGGHKVFMVKPEEPSQPVKEATQL [F226S] | 0.0889 | 0.066 | 0.0605 | 0.0756 | 0.0528 | 0.0731 | 0.0617 | 0.0645 | 0.0642 | 0.0718 | 0.0552 | 0.0542 | 0.0653 |  |  |  | 
2 | MGESLFKGPRDYNPISSSICHLTNESDGHTTSLYGIGFGPFIITNKHLFRRNNGTLVVQSLHGVFKVKDTTTLQQHLVDGRDMIIIRMPKDFPPFPQKLKFREPQREERICLVTTNFQTKSMSSMVSDTSCTFPSGDGIFWKHWIQTKCGQCGSPLVSTRDGFIVGIHSASNFTNTNNYFTSVPKNFMELLTNQEAQQWVSGWRLNADSVLWGGHKVFMVKPEEPFQPVKEATQL [D149C] | 0.0385 | 0.0471 | 0.0636 |  |  | 0.0695 |  |  |  |  |  | 0.0745 |  | 0.0422 |  |  | 
3 | MGESLFKGPRDYNPISSSICHLTNESDGHTTSLYGIGFGPFIITNKHLFRRNNGTLVVQSLHGVFKVKDTTTLQQHLVDGRDMIIIRMPKDFPPFPQKLKFREPQREERICLVTTNFQTKSMSSMVSDTSCTFPSGDGIFWKHWIQTKDGQCGSPLVSTREGFIVGIHSASNFTNTNNYFTSVPKNFMELLTNQEAQQWVSGWRLNADSVLWGGHKVFMVKPEEPFQPVKEATQL [D161E] | 0.0603 | 0.0548 | 0.0713 | 0.0625 | 0.0304 | 0.0617 | 0.0646 | 0.0472 | 0.0576 |  | 0.0744 | 0.053 | 0.0375 | 0.0633 | 0.0189 | 0.053 | 
4 | MGESLFKGPRDYNPISSSICHLTNESDGHTTSLYGIGFGPFIITNKHLFRRNNGTLVVQSLHGVFKVKDTTTLQQHLVDGRDMIIIRMPKDFPPFPQKLKFREPQREERICLVTTNFQTKSMSSMVSDTSCTFPSGDGIFWKHWIQTKDGQCGSPLVSTRDGFIVGIHSASNFTNTNNYFTSVPKNLMELLTNQEAQQWVSGWRLNADSVLWGGHKVFMVKPEEPFQPVKEATQL [F187L] | 0.0592 |  |  |  |  |  |  | 0.0735 | 0.0768 |  | 0.057 | 0.0421 | 0.0531 | 0.0602 | 0.0615 |  | 
5 | MGESLFKGPRDYNPISSSICHLTNESDGHTTSLYGIGFGPFIITNKHLFRRNNGTLVVQSLHGVFKVKDTTTLQQHLVDGRDMIIIRMPKDFPPFPQKLKFREPQREERICLVTTNFQTKSMSSMVVDTSCTFPSGDGIFWKHWIQTKDGQCGSPLVSTRDGFIVGIHSASNFTNTNNYFTSVPKNFMELLTNQEAQQWVSGWRLNADSVLWGGHKVFMVKPEEPFQPVKEATQL [S127V] | 0.0902 | 0.0754 | 0.0779 |  | 0.0391 | 0.0644 | 0.105 | 0.0506 | 0.0872 | 0.0764 | 0.07 | 0.0609 |  | 0.0762 | 0.0699 |  | 0.0606
6 | MGESLFKGPRDYNPISSSICHLTNESDGHTTSLYGIGFGPFIITNKHLFRRNNGTLVVQSLHGVFKVKDTTTLQQHLVDGRDMIIIRMPKDFPPFPQKLKFREPQREERICLVTTNFQTKSMSSMVSDTSCTFPSGDGIFWKHWIQTKDGQCGSPLVSTRDGFIVGIHSASNFTNTNNYFTSVPKNFMELLTNQEAQQWVSGWRLNDDSVLWGGHKVFMVKPEEPFQPVKEATQL [A207D] | 0.0775 |  | 0.0749 |  |  | 0.0614 | 0.0573 | 0.0511 | 0.0736 |  | 0.0618 | 0.0587 |  | 0.0592 | 0.0605 |  | 0.0667
7 | MGESLFKGPRDYNPISSSICHLTNESDGHTTSLYGIGFGPFIITNKHLFRRNNGTLVVQSLHGVFKVKDTTTLQQHLVDGRDMIIIRMPKDFPPFPQKLKFREPQREERICLVTTNFQTKSMSSMVSDTSCTFPSGDGIFWKHWIQTKDGQCGSPLVSTRDGFIVGIHSASNFTNTNNYFTSVPKNFMELLTNQEAQQWVSGWRLNADSVLWGGHKVFMVHPEEPFQPVKEATQL [K221H] | 0.0685 |  |  | 0.101 | 0.0551 | 0.0687 | 0.059 | 0.0491 |  |  | 0.0586 | 0.0508 | 0.0483 |  | 0.059 | 0.0625 | 0.068
8 | MGESLFKGPRDYNPISSSICHLTNESDGHTTSLYGIGFGPFIITNKHLFRRNNGTLVVQSLHGVFKVKDTTTLQQHLVDGRDMIIIRMPKDFPPFPQKLKFREPQREERICLVTTNFQTKSMSSMVSDTSCTFPSGDGIFWKHWIQTKDGQCGSPLVSTRDGFIVGIHSASNFTNTNNYFTSVPKNFMELLTNQEAQQWVSGWRLNADSVLWGGHKVFMVKPEEPFQPVKEATCL [Q234C] | 0.0737 | 0.0598 |  |  |  |  |  |  | 0.0622 |  |  | 0.0561 | 0.0657 | 0.0777 | 0.0576 |  | 
9 | MGESLFKGPRDYNPISSSICHLTNESDGHTTSLYGIGFGPFIIVNKHLFRRNNGTLVVQSLHGVFKVKDTTTLQQHLVDGRDMIIIRMPKDFPPFPQKLKFREPQREERICLVTTNFQTKSMSSMVSDTSCTFPSGDGIFWKHWIQTKDGQCGSPLVSTRDGFIVGIHSASNFTNTNNYFTSVPKNFMELLTNQEAQQWVSGWRLNADSVLWGGHKVFMVKPEEPFQPVKEATQL [T44V] | 0.0551 | 0.0675 | 0.046 | 0.0562 | 0.062 | 0.0514 |  | 0.0488 | 0.0518 |  | 0.0601 | 0.0548 |  | 0.0384 | 0.057 |  | 
10 | MGESLFKGPRDYNPISSSICHLTNESDGHTTSLYGIGFGPFIITNKHLFRRNNGTLVVQSLHGVFKVKDTTTLQQHLVDGRDMIIIRMPKDFPPFPQKLKFREPQREERICLVTTNFQTKSMSSMVSDTSCTFPSGDGIFWCHWIQTKDGQCGSPLVSTRDGFIVGIHSASNFTNTNNYFTSVPKNFMELLTNQEAQQWVSGWRLNADSVLWGGHKVFMVKPEEPFQPVKEATQL [K142C] | 0.127 | 0.0627 | 0.0646 | 0.0679 | 0.0794 |  | 0.0105 |  | 0.091 |  | 0.0744 | 0.0938 | 0.0649 | 0.0686 |  | 0.0727 | 
